{"source": "the supplement of paper PMC8728848", "binders": {"B1": {"name": "AAL (Aleuria aurantia), P18891 (protein)", "chain": "PTEFLYTSKIAAISWAATGGRQQRVYFQDLNGKIREAQRGGDNPWTGGSSQNVIGEAKLFSPLAAVTWKSAQGIQIRVYCVNKDNILSEFVYDGSKWITGQLGSVGVKVGSNSKLAALQWGGSESAPPNIRVYYQKSNGSGSSIHEYVWSGKWTAGASFGSTVPGTGIGATAIGPGRLRIYYQATDNKIREHCWDSNSWYVGGFSASASAGVSIAAISWGSTPNIRVYWQKGREELYEAAYGGSWNTPGQIKDASRPTPSLPDTFIAANSSGNIDISVFFQASGVSLQQWQWISGKGWSIGAVVPTGTPAGW"}}, "assay_in_all_cases": "glycan array binding signal (z-score within array); higher = stronger binding", "conditions_in_all_cases": "glycan notation: IUPAC condensed, linker removed", "key": {"[1]": {"target": "Man(a1-2)Man(a1-6)[Man(a1-3)]Man(a1-6)[Man(a1-2)Man(a1-2)Man(a1-3)]Man(b1-4)GlcNAc(b1-4)GlcNAc", "summary_of_the_method": "(§1)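 Arrays were curated from the Consortium for Functional Glycomics database, 3228 in total, and kept only where the protein sequence was available. Binding is expressed as a within-array Z-score. This score was averaged across arrays of the same protein sequence at different concentrations or buffers and across linkers, and negative values can be read as non-binding.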"}, "Man(a1-3)[Man(a1-6)]Man": {"target": "Man(a1-3)[Man(a1-6)]Man", "summary_of_the_method": "as §1"}, "[2]": {"target": "Man(a1-3)[Man(a1-6)]Man(a1-6)[Man(a1-2)Man(a1-3)]Man(b1-4)GlcNAc(b1-4)GlcNAc", "summary_of_the_method": "as §1"}, "[3]": {"target": "Man(a1-3)[Man(a1-6)]Man(a1-6)[Man(a1-3)]Man", "summary_of_the_method": "as §1"}, "[4]": {"target": "Man(a1-3)[Man(a1-6)]Man(a1-6)[Man(a1-3)]Man(b1-4)GlcNAc(b1-4)GlcNAc", "summary_of_the_method": "as §1"}, "[5]": {"target": "Man(a1-3)[Man(a1-6)]Man(b1-4)GlcNAc(b1-4)GlcNAc", "summary_of_the_method": "as §1"}, "Man(a1-6)Man": {"target": "Man(a1-6)Man", "summary_of_the_method": "as §1"}, "Man(b1-4)GlcNAc": {"target": "Man(b1-4)GlcNAc", "summary_of_the_method": "as §1"}, "Neu5Ac(a2-3)Gal": {"target": "Neu5Ac(a2-3)Gal", "summary_of_the_method": "as §1"}, "[6]": {"target": "Neu5Ac(a2-3)Gal(b1-3)GalNAc", "summary_of_the_method": "as §1"}, "[7]": {"target": "Neu5Ac(a2-3)Gal(b1-3)GalNAc(b1-3)Gal(a1-4)Gal(b1-4)Glc", "summary_of_the_method": "as §1"}, "[8]": {"target": "Neu5Ac(a2-3)Gal(b1-3)GalNAc(b1-3)Gal(b1-4)GlcNAc", "summary_of_the_method": "as §1"}, "[9]": {"target": "Neu5Ac(a2-3)Gal(b1-3)GalNAc(b1-4)[Neu5Ac(a2-3)]Gal(b1-4)Glc", "summary_of_the_method": "as §1"}, "[10]": {"target": "Neu5Ac(a2-3)Gal(b1-3)GalNAc(b1-4)[Neu5Ac(a2-8)Neu5Ac(a2-3)]Gal(b1-4)Glc", "summary_of_the_method": "as §1"}, "[11]": {"target": "Neu5Ac(a2-3)Gal(b1-3)GalNAc6S", "summary_of_the_method": "as §1"}, "[12]": {"target": "Neu5Ac(a2-3)Gal(b1-3)GlcNAc", "summary_of_the_method": "as §1"}, "[13]": {"target": "Neu5Ac(a2-3)Gal(b1-3)GlcNAc(b1-2)Man(a1-3)[Neu5Ac(a2-3)Gal(b1-3)GlcNAc(b1-2)Man(a1-6)]Man(b1-4)GlcNAc(b1-4)GlcNAc", "summary_of_the_method": "as §1"}, "[14]": {"target": "Neu5Ac(a2-3)Gal(b1-3)GlcNAc(b1-3)Gal(b1-3)GlcNAc", "summary_of_the_method": "as §1"}, "[15]": {"target": "Neu5Ac(a2-3)Gal(b1-3)GlcNAc(b1-3)Gal(b1-4)GlcNAc", "summary_of_the_method": "as §1"}, "[16]": {"target": "Neu5Ac(a2-3)Gal(b1-3)GlcNAc(b1-3)GalNAc", "summary_of_the_method": "as §1"}, "[17]": {"target": "Neu5Ac(a2-3)Gal(b1-3)GlcNAc6S", "summary_of_the_method": "as §1"}, "[18]": {"target": "Neu5Ac(a2-3)Gal(b1-3)[Fuc(a1-4)]GlcNAc", "summary_of_the_method": "as §1"}, "[19]": {"target": "Neu5Ac(a2-3)Gal(b1-3)[Fuc(a1-4)]GlcNAc(b1-3)Gal(b1-3)[Fuc(a1-4)]GlcNAc", "summary_of_the_method": "as §1"}, "[20]": {"target": "Neu5Ac(a2-3)Gal(b1-3)[Fuc(a1-4)]GlcNAc(b1-3)Gal(b1-4)[Fuc(a1-3)]GlcNAc", "summary_of_the_method": "as §1"}, "[21]": {"target": "Neu5Ac(a2-3)Gal(b1-3)[Neu5Ac(a2-3)Gal(b1-4)]GlcNAc", "summary_of_the_method": "as §1"}, "[22]": {"target": "Neu5Ac(a2-3)Gal(b1-3)[Neu5Ac(a2-6)]GalNAc", "summary_of_the_method": "as §1"}, "Neu5Ac(a2-3)Gal(b1-4)Glc": {"target": "Neu5Ac(a2-3)Gal(b1-4)Glc", "summary_of_the_method": "as §1"}, "[23]": {"target": "Neu5Ac(a2-3)Gal(b1-4)GlcNAc", "summary_of_the_method": "as §1"}, "[24]": {"target": "Neu5Ac(a2-3)Gal(b1-4)GlcNAc(b1-2)Man(a1-3)[GlcNAc(b1-2)Man(b1-4)GlcNAc(b1-2)Man(a1-6)]Man(b1-4)GlcNAc(b1-4)GlcNAc", "summary_of_the_method": "as §1"}, "[25]": {"target": "Neu5Ac(a2-3)Gal(b1-4)GlcNAc(b1-2)Man(a1-3)[Neu5Ac(a2-6)Gal(b1-4)GlcNAc(b1-2)Man(a1-6)]Man(b1-4)GlcNAc(b1-4)GlcNAc", "summary_of_the_method": "as §1"}, "[26]": {"target": "Neu5Ac(a2-3)Gal(b1-4)GlcNAc(b1-3)Gal", "summary_of_the_method": "as §1"}, "[27]": {"target": "Neu5Ac(a2-3)Gal(b1-4)GlcNAc(b1-3)Gal(b1-3)GlcNAc", "summary_of_the_method": "as §1"}, "[28]": {"target": "Neu5Ac(a2-3)Gal(b1-4)GlcNAc(b1-3)Gal(b1-4)GlcNAc", "summary_of_the_method": "as §1"}, "[29]": {"target": "Neu5Ac(a2-3)Gal(b1-4)GlcNAc(b1-3)Gal(b1-4)GlcNAc(b1-3)Gal(b1-4)GlcNAc", "summary_of_the_method": "as §1"}, "[30]": {"target": "Neu5Ac(a2-3)Gal(b1-4)GlcNAc(b1-3)Gal(b1-4)[Fuc(a1-3)]GlcNAc", "summary_of_the_method": "as §1"}, "[31]": {"target": "Neu5Ac(a2-3)Gal(b1-4)GlcNAc(b1-3)GalNAc", "summary_of_the_method": "as §1"}, "[32]": {"target": "Neu5Ac(a2-3)Gal(b1-4)GlcNAc(b1-6)[Gal(b1-3)]GalNAc", "summary_of_the_method": "as §1"}}, "note": "The other results are listed elsewhere or left out.", "data": [{"binder": "B1", "values": [{"measurement": "glycan array binding signal (z-score)", "setting": "[1]", "result": -0.5}, {"measurement": "glycan array binding signal (z-score)", "setting": "Man(a1-3)[Man(a1-6)]Man", "result": -0.518}, {"measurement": "glycan array binding signal (z-score)", "setting": "[2]", "result": -0.494}, {"measurement": "glycan array binding signal (z-score)", "setting": "[3]", "result": -0.435}, {"measurement": "glycan array binding signal (z-score)", "setting": "[4]", "result": -0.485}, {"measurement": "glycan array binding signal (z-score)", "setting": "[5]", "result": -0.454}, {"measurement": "glycan array binding signal (z-score)", "setting": "Man(a1-6)Man", "result": -0.436}, {"measurement": "glycan array binding signal (z-score)", "setting": "Man(b1-4)GlcNAc", "result": -0.508}, {"measurement": "glycan array binding signal (z-score)", "setting": "Neu5Ac(a2-3)Gal", "result": -0.501}, {"measurement": "glycan array binding signal (z-score)", "setting": "[6]", "result": -0.471}, {"measurement": "glycan array binding signal (z-score)", "setting": "[7]", "result": -0.489}, {"measurement": "glycan array binding signal (z-score)", "setting": "[8]", "result": -0.577}, {"measurement": "glycan array binding signal (z-score)", "setting": "[9]", "result": -0.501}, {"measurement": "glycan array binding signal (z-score)", "setting": "[10]", "result": -0.425}, {"measurement": "glycan array binding signal (z-score)", "setting": "[11]", "result": -0.5}, {"measurement": "glycan array binding signal (z-score)", "setting": "[12]", "result": -0.513}, {"measurement": "glycan array binding signal (z-score)", "setting": "[13]", "result": -0.442}, {"measurement": "glycan array binding signal (z-score)", "setting": "[14]", "result": -0.482}, {"measurement": "glycan array binding signal (z-score)", "setting": "[15]", "result": -0.501}, {"measurement": "glycan array binding signal (z-score)", "setting": "[16]", "result": -0.433}, {"measurement": "glycan array binding signal (z-score)", "setting": "[17]", "result": -0.493}, {"measurement": "glycan array binding signal (z-score)", "setting": "[18]", "result": 1.33}, {"measurement": "glycan array binding signal (z-score)", "setting": "[19]", "result": 1.29}, {"measurement": "glycan array binding signal (z-score)", "setting": "[20]", "result": 1.55}, {"measurement": "glycan array binding signal (z-score)", "setting": "[21]", "result": -0.511}, {"measurement": "glycan array binding signal (z-score)", "setting": "[22]", "result": -0.364}, {"measurement": "glycan array binding signal (z-score)", "setting": "Neu5Ac(a2-3)Gal(b1-4)Glc", "result": -0.496}, {"measurement": "glycan array binding signal (z-score)", "setting": "[23]", "result": -0.505}, {"measurement": "glycan array binding signal (z-score)", "setting": "[24]", "result": -0.443}, {"measurement": "glycan array binding signal (z-score)", "setting": "[25]", "result": -0.423}, {"measurement": "glycan array binding signal (z-score)", "setting": "[26]", "result": 0.126}, {"measurement": "glycan array binding signal (z-score)", "setting": "[27]", "result": -0.404}, {"measurement": "glycan array binding signal (z-score)", "setting": "[28]", "result": -0.426}, {"measurement": "glycan array binding signal (z-score)", "setting": "[29]", "result": -0.514}, {"measurement": "glycan array binding signal (z-score)", "setting": "[30]", "result": -0.515}, {"measurement": "glycan array binding signal (z-score)", "setting": "[31]", "result": -0.44}, {"measurement": "glycan array binding signal (z-score)", "setting": "[32]", "result": -0.444}]}]}
